# From article PMC9911399, “Two distinct binding modes provide the RNA-binding protein RbFox with extraordinary sequence specificity”
# Positions count from the first letter of the chain named. The list shows a part of the results.
# T1: RBFOX1 RRM (Homo sapiens, UniProt Q9NWB1 109-208)
# T1 sequence: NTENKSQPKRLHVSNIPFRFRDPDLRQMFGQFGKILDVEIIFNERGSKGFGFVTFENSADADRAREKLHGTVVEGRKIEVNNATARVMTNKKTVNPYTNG
# B1: CAUUUCU (DNA:RNA)
# RNA: GGGAGACCGGAAUUCAGAUUGUCCCAUUUCUUUAAAUCCCGUCGUAGCCACCA
# DNA 1: CAATCTGAATTCCGGTCTCCC
# DNA 2: TGGTGGCTACGACGGGATT
# B2: CAUCGGA (DNA:RNA)
# RNA: B1 RNA with U28C, U29G, C30G, U31A
# DNA 1: CAATCTGAATTCCGGTCTCCC
# DNA 2: TGGTGGCTACGACGGGATT
# B3: UCCGCUG (DNA:RNA)
# RNA: GGGAGACCGGAAUUCAGAUUGUCCUCCGCUGUUAAAUCCCGUCGUAGCCACCA
# DNA 1: CAATCTGAATTCCGGTCTCCC
# DNA 2: TGGTGGCTACGACGGGATT
# B4: CCCGUAG (DNA:RNA)
# RNA: B3 RNA with U25C, C29U, U30A
# DNA 1: CAATCTGAATTCCGGTCTCCC
# DNA 2: TGGTGGCTACGACGGGATT
# B5: ACGUAAA (DNA:RNA)
# RNA: B1 RNA with C25A, A26C, U27G, U29A, C30A, U31A
# DNA 1: CAATCTGAATTCCGGTCTCCC
# DNA 2: TGGTGGCTACGACGGGATT
# B6: ACGCCCC (DNA:RNA)
# RNA: B3 RNA with U25A, C27G, G28C, U30C, G31C
# DNA 1: CAATCTGAATTCCGGTCTCCC
# DNA 2: TGGTGGCTACGACGGGATT
# B7: CCUUAAA (DNA:RNA)
# RNA: B1 RNA with A26C, U29A, C30A, U31A
# DNA 1: CAATCTGAATTCCGGTCTCCC
# DNA 2: TGGTGGCTACGACGGGATT
# B8: ACUGCCA (DNA:RNA)
# RNA: B3 RNA with U25A, C27U, U30C, G31A
# DNA 1: CAATCTGAATTCCGGTCTCCC
# DNA 2: TGGTGGCTACGACGGGATT
# B9: ACUACUC (DNA:RNA)
# RNA: B3 RNA with U25A, C27U, G28A, G31C
# DNA 1: CAATCTGAATTCCGGTCTCCC
# DNA 2: TGGTGGCTACGACGGGATT
# Molecular target: T1, RBFOX1 RRM
# Assay: EMSA; HiTS-Eq, 1 nM pool, 10 min; buffer printed only for the single-RNA assays: 10 mM Tris pH 7.5, 150 mM NaCl, 3.4 mM EDTA, 0.001% NP-40, 30 C
# Conditions: tags: His6 N-terminal (pET28a); label: 5' 32P
# How it was run: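 Purified wild-type or mutant RbFox RRM at increasing concentrations was equilibrated with 1 nM of 5′-radiolabelled RNA carrying 7 randomized nucleotides for 10 min in 50 µL. Unbound RNA was separated by 8% native PAGE and sequenced. Relative association constants came from read-count changes of each RNA species compared with the control reaction, normalised to the cognate motif.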
row,Binder,binding signal
1,B1,0.00409 KA relative to UGCAUGU
2,B2,0.00578 KA relative to UGCAUGU
3,B3,0.017 KA relative to UGCAUGU
4,B4,0.0113 KA relative to UGCAUGU
5,B5,0.000585 KA relative to UGCAUGU
6,B6,0.00646 KA relative to UGCAUGU
7,B7,0.0014 KA relative to UGCAUGU
8,B8,0.0036 KA relative to UGCAUGU
9,B9,0.00205 KA relative to UGCAUGU
